{
  "source": "PubChem BioAssay AID588795",
  "about": "(National Center for Advancing Translational Sciences (NCATS), 2011)",
  "note": "The campaign covered roughly 390,000 compounds. About 1,400 (0.36%) were called active. This list was built around the results that the source calls inconclusive (neither active nor inactive); the mix of calls is not that of the screen. The call rests on the fitted dose curve; in most records, active means well fitted inhibition curve with a large enough effect; inconclusive means small, poorly fitted or top-dose-only effect; inactive means no such curve, though single readings can be large or run the other way. Potencies of inconclusive entries are doubtful fits and often do not repeat. Potency means the concentration at half of the fitted maximal effect; tags describe the fitted curve by direction and shape.",
  "data": [
    {"target": "Flap endonuclease 1 (Homo sapiens) (UniProt P39748)", "sequence (P39748 whole entry, looked up)": "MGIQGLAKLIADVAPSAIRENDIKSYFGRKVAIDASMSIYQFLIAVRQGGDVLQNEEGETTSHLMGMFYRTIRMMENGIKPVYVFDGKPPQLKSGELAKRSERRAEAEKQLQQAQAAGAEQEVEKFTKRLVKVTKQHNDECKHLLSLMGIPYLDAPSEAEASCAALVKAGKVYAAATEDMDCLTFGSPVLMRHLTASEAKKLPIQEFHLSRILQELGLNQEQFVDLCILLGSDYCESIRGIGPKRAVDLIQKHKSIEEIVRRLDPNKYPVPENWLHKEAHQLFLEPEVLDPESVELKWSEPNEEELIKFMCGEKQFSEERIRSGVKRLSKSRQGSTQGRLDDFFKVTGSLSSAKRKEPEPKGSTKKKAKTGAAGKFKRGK", "test": "qHTS Assay for the Inhibitors of Human Flap endonuclease 1 (FEN1); further: nearly all actives have a fitted effect of over 65% in size.", "conditions": "Recombinant FEN1 flap cleavage, fluorescence, 15 min; series mostly up to 114 µM", "procedure,_shortened": "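Enzyme 10 nM, 15 min RT preincubation with compound; start with substrate 50 nM final; reads at 0 and 15 min; qHTS titration, four-parameter Hill fit.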", "values": [
      {"smiles": "COc1ccccc1NC(=O)C1(C)Cc2ccccc2C(=O)O1", "note": "(stereo not given)", "Potency": "inconclusive: 3.98 µM [inhibitor, partial curve, poor fit]"},
      {"smiles": "C[c-]1[c-](C)[c-](C)[c-](C)[c-]1C.[Fe].c1cc2nccc(N3CCCC3)[c-]2c1", "note": "(stereo not given)", "Potency": "inconclusive: 56.2 µM [inhibitor, partial curve, poor fit]"},
      {"smiles": "Cc1cccc(Cn2nnc3c(=O)[nH]c(C4CCCN(C(=O)c5ccc(C(C)(C)C)cc5)C4)nc32)c1", "note": "(stereo not given)", "Potency": "inconclusive: 20 µM [inhibitor, partial curve, poor fit]"},
      {"smiles": "COc1ccc(-n2c(Cc3ccccc3)nnc2SCc2ccc([N+](=O)[O-])cc2)cc1", "Potency": "inconclusive: 39.8 µM [inhibitor, partial curve, poor fit]"},
      {"smiles": "O=C(Nc1cc([N+](=O)[O-])ccc1O)c1ccc2c(c1)C(=O)N(Cc1ccco1)C2=O", "Potency": "inconclusive: 89.1 µM [inhibitor, single point]"},
      {"smiles": "Cc1cc(Cl)ccc1NS(=O)(=O)c1cc2[nH]c(=O)c(=O)[nH]c2cc1C", "Potency": "inactive"},
      {"smiles": "C=C1CCN(C(C)C(=O)OCc2cccc(C)c2)S(=O)(=O)c2ccccc21", "note": "(stereo not given)", "Potency": "inactive"},
      {"smiles": "CC1CC1C(=O)Nc1nc(-c2cccs2)c(-c2cccs2)s1", "note": "(stereo not given)", "Potency": "inactive"},
      {"smiles": "O=C(Nc1ccccc1)C(Cl)C(=O)c1ccccc1", "note": "(stereo not given)", "Potency": "inconclusive: 79.4 µM [inhibitor, single point]"},
      {"smiles": "Cc1ccccc1OCC(=O)Nc1nnc(S(=O)(=O)N(C)c2ccccc2)s1", "Potency": "inactive"},
      {"smiles": "CC(=O)N(\\C=C/C=C/C=C1\\Sc2ccccc2C1=O)c1ccccc1", "Potency": "inconclusive: 56.2 µM [inhibitor, partial curve, poor fit]"},
      {"smiles": "COc1cc(/C=N/NC(=O)c2cccc(NC(=O)c3ccccc3Cl)c2)ccc1O", "Potency": "inconclusive: 44.7 µM [inhibitor, partial curve, poor fit]"},
      {"smiles": "CCOC(=O)c1cc(C#N)c(SCC(N)=O)[nH]c1=O", "Potency": "inconclusive: 79.4 µM [inhibitor, partial curve, poor fit]"},
      {"smiles": "CN1CCN(c2ncnc3c2[nH]c2ccc(F)cc23)CC1", "Potency": "inconclusive: 89.1 µM [inhibitor, partial curve, poor fit]"},
      {"smiles": "COc1cc2c(NC3CCN(C(C)C)CC3)nc(N3CCCN(C)CC3)nc2cc1OCCCN1CCCC1", "Potency": "active: 22.4 µM"},
      {"smiles": "COc1cccc(CNC(=O)C2CCN(c3ncnc4c3nc3n4CCCCC3)CC2)c1", "Potency": "inactive"},
      {"smiles": "Cc1ccc(Nc2c(-c3cccc(Cl)c3)nc3cccc(C)n23)cc1", "Potency": "inconclusive: 89.1 µM [inhibitor, partial curve, poor fit]"},
      {"smiles": "COc1cc2c(cc1OC)CN(c1nc(CN3CCCC3)nc3sc(C)c(C)c13)CC2", "Potency": "inconclusive: 44.7 µM [inhibitor, partial curve]"},
      {"smiles": "COc1ccc(S(=O)(=O)Nc2cc(SCC(=O)O)c(O)c3ccccc23)cc1", "Potency": "inconclusive: 4.47 µM [inhibitor, full curve, poor fit]"},
      {"smiles": "C(#Cc1ccccc1)C[N+]1(CC#Cc2ccccc2)CCCCC1", "Potency": "inactive"},
      {"smiles": "CCOc1ccc(/C=C2\\SC(=S)N(CCC(=O)Nc3ccc(C(=O)O)cc3)C2=O)cc1", "Potency": "inconclusive: 89.1 µM [inhibitor, single point]"},
      {"smiles": "O=C1/C(=C/c2cccnc2)Oc2cc(OS(=O)(=O)c3ccccc3)ccc21", "Potency": "inactive"},
      {"smiles": "CC(C)c1ccc(-c2noc(SCC(=O)N3CCCCC3)n2)cc1", "Potency": "inactive"},
      {"smiles": "Cc1ccc(N2CC(NC(=O)Cc3ccc(F)cc3)CC2=O)cc1C", "note": "(stereo not given)", "Potency": "inactive"},
      {"smiles": "Cc1cc(NC(=O)c2ccc([N+](=O)[O-])o2)ccc1NC(=O)c1ccco1", "Potency": "inactive"},
      {"smiles": "COc1ccc(/C=C(/C(=O)Nc2ccccc2C(=O)N2CCCC2)c2ccccc2)cc1", "Potency": "inconclusive: 89.1 µM [inhibitor, partial curve, poor fit]"},
      {"smiles": "CCN(CC)c1ccc(C=C2C(=O)OC3(CCCCC3)OC2=O)cc1", "Potency": "inconclusive: 89.1 µM [inhibitor, single point]"},
      {"smiles": "COc1ccccc1CNC(=O)c1cc(-c2ccccc2C)nn1CC1CC(c2cccnc2)=NO1", "note": "(stereo not given)", "Potency": "inconclusive: 89.1 µM [inhibitor, partial curve, poor fit]"},
      {"smiles": "CCN(CC)C(=O)[C@H]1CC(CC(=O)NCC23CC4CC(CC(C4)C2)C3)C(=O)N2CCc3c([nH]c4ccccc34)[C@]12C", "note": "(stereo not given in full)", "Potency": "inconclusive: 70.8 µM [inhibitor, partial curve, poor fit]"},
      {"smiles": "CC(=O)N[C@@H](CS)C(=O)O", "Potency": "inconclusive: 26.7 µM [inhibitor, single point]"},
      {"smiles": "Cc1[nH]c2ccccc2c1C(=O)C(C)OC(=O)c1ccc([N+](=O)[O-])o1", "note": "(stereo not given)", "Potency": "inconclusive: 35.5 µM [inhibitor, full curve]"},
      {"smiles": "COc1cc2sc3ccc(-c4ccc(CN5CCOCC5)cc4)cc3c(=O)c2cc1OC", "Potency": "inconclusive: 39.8 µM [inhibitor, partial curve, poor fit]"},
      {"smiles": "N#C/C(=C\\c1ccc(O)c(O)c1)C(=O)NCCc1ccccc1", "Potency": "inconclusive: 4.23 µM [inhibitor, full curve, poor fit]"},
      {"smiles": "CC(C)(C)Cc1nnc(NC(=O)Cc2cccs2)s1", "Potency": "inconclusive: 56.2 µM [inhibitor, partial curve, poor fit]"},
      {"smiles": "Fc1cccc2sc(Nc3nnc(-c4ccccc4)o3)nc12", "Potency": "inconclusive: 50.1 µM [inhibitor, partial curve, poor fit]"},
      {"smiles": "Oc1ccc(C2=Nn3c(nnc3-c3ccco3)SC2)cc1O", "Potency": "active: 50.1 µM"},
      {"smiles": "O=C(COC(=O)c1ccc([N+](=O)[O-])o1)NC1CCS(=O)(=O)C1", "note": "(stereo not given)", "Potency": "inconclusive: 44.7 µM [inhibitor, partial curve]"},
      {"smiles": "CCc1ccccc1NC(=S)/N=C(\\N)Nc1nc(C)c2cc(C)ccc2n1", "Potency": "inconclusive: 56.2 µM [inhibitor, partial curve]"},
      {"smiles": "CC1CC(=O)c2c(cc3c(-c4c(O)cc(O)c5c(O)c6c(cc45)OC(C)CC6=O)c(O)cc(O)c3c2O)O1", "note": "(stereo not given)", "Potency": "active: 14.1 µM"},
      {"smiles": "Nc1nn2cc(-c3ccc(Br)cc3)nc2c2ccccc12", "Potency": "inconclusive: 22.4 µM [inhibitor, partial curve, poor fit]"}
    ]}
  ]
}
